Article PMC11149917, “Translational and Therapeutic Evaluation of RAS-GTP Inhibition by RMC-6236 in RAS-Driven Cancers” (Cancer Discovery, 2024)
The source gives many values for each of these; only a part stands here.

Test system: PRISM panel of 845 cancer cell lines
Experiment: PRISM assay
Assay type: cell-based, human
Method: The PRISM cell set comprised 845 cell lines representing more than 45 lineages (see Supplementary Table S1 for cell line information), which largely overlapped with the Cancer Cell Line Encyclopedia; https://portals.broadinstitute.org/ccle). Cell lines were grown in RPMI without phenol red and supplemented with 10% or 20% FBS for adherent and suspended lines, respectively. Parental cell lines were stably infected with a unique 24-nucleotide DNA barcode via lentiviral transduction and blasticidin selection. After selection, barcoded cell lines were expanded and subjected to quality control (Mycoplasma contamination test, an SNP test for confirming cell line identity, and barcode ID confirmation). Approved cell lines were then pooled (20–25 cell lines per pool) based on doubling time similarity and frozen in assay-ready vials.
RMC-6236 was added to 384-well plates at 8-point concentration with 3-fold dilutions in triplicate. These assay-ready plates were then seeded with the thawed cell line pools. Adherent cell pools were plated at 1,250 cells per well, whereas suspension and mixed adherent/suspension pools were plated at 2,000 cells per well. Treated cells were incubated for 5 days, and then lysed. Lysate plates were collapsed together prior to barcode amplification and detection.
Each cell line's unique barcode is located in the 3′UTR of the blasticidin-resistance gene and therefore is expressed as mRNA. Total mRNA was captured using magnetic particles that recognize polyA sequences. Captured mRNA was reverse-transcribed into cDNA and then the sequence containing the unique PRISM barcode was amplified using PCR. Finally, Luminex beads that recognize the specific barcode sequences in the cell set were hybridized to the PCR products and detected using a Luminex scanner which reports the signal as a median fluorescent intensity (MFI).
• Each detection well contained 10 control barcodes in increasing abundances as spike-in controls. For each plate, we first create a reference profile by calculating the median of the log2(MFI) values across negative control wells for each of these spiked-in barcodes. • For each well, a monotonic smooth p-spline was fitted to map the spike-in control levels to the reference profile. Next, we transform the log2(MFI) for each cell barcode using the fitted spline to allow well-to-well comparisons by correcting for amplification and detection artifacts. • Next, the separability between negative and positive control treatments was assessed. In particular, we calculated the error rate of the optimum simple threshold classifier between the control samples for each cell line and plate combination. The error rate is a measure of the overlap of the two control sets and was defined as error = (FP + FN)/n, where FP is false positives, FN is false negatives, and n is the total number of controls. A threshold was set between the distributions of positive and negative control log2(MFI) values (with everything below the threshold said to be positive and above said to be negative) such that this value is minimized. Additionally, we also calculated the dynamic range of each cell line. […] Additionally, any cell line that had less than 2 passing replicates was also omitted for the sake of reproducibility. Finally, we computed viability by normalizing with respect to the median negative control for each plate.
For every gene with nonsilent mutations in at least four cell lines, we compared the AUC values between cells with and without those mutations using a t test. This analysis was carried out for (i) the full data set; (ii) excluding cell lines with nonsilent KRAS mutations; and (iii) excluding cell lines that have either KRAS or NRAS nonsilent mutations.

## CCn1c(-c2cc(N3CCN(C)CC3)cnc2[C@H](C)OC)c2c3cc(ccc31)-c1csc(n1)C[C@H](NC(=O)[C@H]1C[C@@H]1C)C(=O)N1CCC[C@H](N1)C(=O)OCC(C)(C)C2 [RMC-6236]
42MGBA_CENTRAL_NERVOUS_SYSTEM
  RMC-6236: RevMed PRISM: AUC: 0.8573
94T778_SOFT_TISSUE
  RMC-6236: RevMed PRISM: AUC: 0.7475
95T1000_SOFT_TISSUE
  RMC-6236: RevMed PRISM: AUC: 0.6212
253JBV_URINARY_TRACT
  RMC-6236: RevMed PRISM: AUC: 0.8447
253J_URINARY_TRACT
  RMC-6236: RevMed PRISM: AUC: 0.7913
647V_URINARY_TRACT
  RMC-6236: RevMed PRISM: AUC: 0.7963
769P_KIDNEY
  RMC-6236: RevMed PRISM: AUC: 0.8509
786O_KIDNEY
  RMC-6236: RevMed PRISM: AUC: 1
921_UVEA
  RMC-6236: RevMed PRISM: AUC: 0.7183
1618K_TESTIS
  RMC-6236: RevMed PRISM: AUC: 0.8085
1777NRPMET_TESTIS
  RMC-6236: RevMed PRISM: AUC: 0.8797
8305C_THYROID
  RMC-6236: RevMed PRISM: AUC: 0.7818
9505BIK_PANCREAS, KRAS p.G12V
  RMC-6236: RevMed PRISM: AUC: 0.2025
A3KAW_HAEMATOPOIETIC_AND_LYMPHOID_TISSUE
  RMC-6236: RevMed PRISM: AUC: 0.5106
A101D_SKIN
  RMC-6236: RevMed PRISM: AUC: 0.886
A172_CENTRAL_NERVOUS_SYSTEM
  RMC-6236: RevMed PRISM: AUC: 1
A204_SOFT_TISSUE
  RMC-6236: RevMed PRISM: AUC: 0.7672
A253_SALIVARY_GLAND
  RMC-6236: RevMed PRISM: AUC: 0.4481
A375_SKIN
  RMC-6236: RevMed PRISM: AUC: 0.833
A498_KIDNEY
  RMC-6236: RevMed PRISM: AUC: 0.6835
A549_LUNG, KRAS p.G12S
  RMC-6236: RevMed PRISM: AUC: 0.588
A673_BONE
  RMC-6236: RevMed PRISM: AUC: 0.9942
A2780_OVARY
  RMC-6236: RevMed PRISM: AUC: 0.7354
ACHN_KIDNEY
  RMC-6236: RevMed PRISM: AUC: 0.5715
AM38_CENTRAL_NERVOUS_SYSTEM
  RMC-6236: RevMed PRISM: AUC: 1
AMO1_HAEMATOPOIETIC_AND_LYMPHOID_TISSUE, KRAS p.A146T
  RMC-6236: RevMed PRISM: AUC: 0.879
ANGMCSS_CENTRAL_NERVOUS_SYSTEM
  RMC-6236: RevMed PRISM: AUC: 0.8471
ASPC1_PANCREAS, KRAS p.G12D
  RMC-6236: RevMed PRISM: AUC: 0.4632
AU565_BREAST
  RMC-6236: RevMed PRISM: AUC: 0.906
BCPAP_THYROID
  RMC-6236: RevMed PRISM: AUC: 0.8571
BEN_LUNG
  RMC-6236: RevMed PRISM: AUC: 0.8571
BFTC905_URINARY_TRACT, NRAS p.Q61L
  RMC-6236: RevMed PRISM: AUC: 0.6287
BFTC909_KIDNEY
  RMC-6236: RevMed PRISM: AUC: 0.8461
BHT101_THYROID
  RMC-6236: RevMed PRISM: AUC: 0.8444
BICR6_UPPER_AERODIGESTIVE_TRACT
  RMC-6236: RevMed PRISM: AUC: 0.626
BICR31_UPPER_AERODIGESTIVE_TRACT
  RMC-6236: RevMed PRISM: AUC: 0.6956
BICR78_UPPER_AERODIGESTIVE_TRACT
  RMC-6236: RevMed PRISM: AUC: 0.4863
BOKU_CERVIX
  RMC-6236: RevMed PRISM: AUC: 0.7111
BT474_BREAST
  RMC-6236: RevMed PRISM: AUC: 0.8139
BXPC3_PANCREAS
  RMC-6236: RevMed PRISM: AUC: 0.996
C4I_CERVIX
  RMC-6236: RevMed PRISM: AUC: 0.7241
C80_LARGE_INTESTINE, KRAS p.A146V
  RMC-6236: RevMed PRISM: AUC: 0.5069
CAKI1_KIDNEY
  RMC-6236: RevMed PRISM: AUC: 0.8381
CAL12T_LUNG
  RMC-6236: RevMed PRISM: AUC: 0.7366
CAL27_UPPER_AERODIGESTIVE_TRACT, NRAS p.D92N, p.R68T
  RMC-6236: RevMed PRISM: AUC: 0.5492
CAL29_URINARY_TRACT
  RMC-6236: RevMed PRISM: AUC: 0.5384
CAL51_BREAST
  RMC-6236: RevMed PRISM: AUC: 0.7042
CAL78_BONE
  RMC-6236: RevMed PRISM: AUC: 0.9476
CAL148_BREAST
  RMC-6236: RevMed PRISM: AUC: 1
CALU1_LUNG, KRAS p.G12C
  RMC-6236: RevMed PRISM: AUC: 0.5763
CALU6_LUNG, KRAS p.Q61K
  RMC-6236: RevMed PRISM: AUC: 0.6273
CAMA1_BREAST
  RMC-6236: RevMed PRISM: AUC: 1
CAOV3_OVARY
  RMC-6236: RevMed PRISM: AUC: 0.7429
CAPAN2_PANCREAS, KRAS p.G12V
  RMC-6236: RevMed PRISM: AUC: 0.3858
CCK81_LARGE_INTESTINE
  RMC-6236: RevMed PRISM: AUC: 0.8465
CCSW1_BILIARY_TRACT
  RMC-6236: RevMed PRISM: AUC: 0.6208
CFPAC1_PANCREAS, KRAS p.G12V
  RMC-6236: RevMed PRISM: AUC: 0.4566
CH157MN_CENTRAL_NERVOUS_SYSTEM, NRAS p.Q61K
  RMC-6236: RevMed PRISM: AUC: 0.6203
CHAGOK1_LUNG
  RMC-6236: RevMed PRISM: AUC: 0.5647
CHLA10_BONE
  RMC-6236: RevMed PRISM: AUC: 0.99
CHLA57_BONE
  RMC-6236: RevMed PRISM: AUC: 0.99
CJM_SKIN, HRAS p.Q61L
  RMC-6236: RevMed PRISM: AUC: 0.5971
CL11_LARGE_INTESTINE, KRAS p.Q61H, p.V14I
  RMC-6236: RevMed PRISM: AUC: 0.5015
COGAR359_SOFT_TISSUE
  RMC-6236: RevMed PRISM: AUC: 0.99
COGE352_BONE
  RMC-6236: RevMed PRISM: AUC: 0.8348
COLO320_LARGE_INTESTINE
  RMC-6236: RevMed PRISM: AUC: 0.6699
COLO680N_OESOPHAGUS
  RMC-6236: RevMed PRISM: AUC: 0.7369
COLO741_SKIN
  RMC-6236: RevMed PRISM: AUC: 1
COLO783_SKIN
  RMC-6236: RevMed PRISM: AUC: 0.9312
COLO792_SKIN
  RMC-6236: RevMed PRISM: AUC: 0.6729
CORL88_LUNG
  RMC-6236: RevMed PRISM: AUC: 0.6508
CORL105_LUNG
  RMC-6236: RevMed PRISM: AUC: 0.778
CORL279_LUNG, NRAS p.K5R
  RMC-6236: RevMed PRISM: AUC: 0.8133
COV318_OVARY
  RMC-6236: RevMed PRISM: AUC: 0.9026
COV362_OVARY
  RMC-6236: RevMed PRISM: AUC: 0.7721
COV644_OVARY
  RMC-6236: RevMed PRISM: AUC: 0.8618
CW9019_SOFT_TISSUE
  RMC-6236: RevMed PRISM: AUC: 0.779
DANG_PANCREAS, KRAS p.G12V
  RMC-6236: RevMed PRISM: AUC: 0.3305
DAOY_CENTRAL_NERVOUS_SYSTEM
  RMC-6236: RevMed PRISM: AUC: 0.7517
DBTRG05MG_CENTRAL_NERVOUS_SYSTEM
  RMC-6236: RevMed PRISM: AUC: 0.8324
DKMG_CENTRAL_NERVOUS_SYSTEM
  RMC-6236: RevMed PRISM: AUC: 1
DMS79_LUNG
  RMC-6236: RevMed PRISM: AUC: 0.9955
DMS273_LUNG
  RMC-6236: RevMed PRISM: AUC: 0.9198
DOTC24510_CERVIX
  RMC-6236: RevMed PRISM: AUC: 0.5945
DU4475_BREAST
  RMC-6236: RevMed PRISM: AUC: 0.8201
ECC2_BILIARY_TRACT
  RMC-6236: RevMed PRISM: AUC: 0.7214
ECC10_STOMACH
  RMC-6236: RevMed PRISM: AUC: 0.873
EFE184_ENDOMETRIUM
  RMC-6236: RevMed PRISM: AUC: 0.7492
EFM19_BREAST
  RMC-6236: RevMed PRISM: AUC: 1
EFM192A_BREAST
  RMC-6236: RevMed PRISM: AUC: 0.9985
EFO21_OVARY
  RMC-6236: RevMed PRISM: AUC: 0.6746
EFO27_OVARY
  RMC-6236: RevMed PRISM: AUC: 0.7784
